# Assay results: the supplement of paper PMC8728848
# The list shows a part of the results.
# B1: NKp30 (Homo sapiens), O14931 (protein)
# chain: MAWMLLLILIMVHPGSCALWVSQPPEIRTLEGSSAFLPCSFNASQGRLAIGSVTWFRDEVVPGKEVRNGTPERFGRLAPLASSRFLHDHQAELHIRDVRGHDASIYVCRVEVLGLGVGTGNGTRLVVRKEHPQLGAGTHADPEAPEAEGAPSVFLFPPKPKDTLMISRTPEVTCVVVDVSHEDPEVKFNWYVDGVEVHNAKTPREEQYNSTYRVVSVLTVLHQDWLNGKEYKCKVSNKALPAPIEKTISKAKGQPREPQVYTLPPSRDELTKNQVSLTCLVKGFYPSDIAVEWESNGQPENNYKTTPPVLDSDGSFFLYSKLTVDKSRWQQGNVFSCSVMHEALHNHYTQKSLSLSPGK
# How the values were obtained:
# Experiment in all cases: glycan array binding signal (z-score within array); higher = stronger binding
# Conditions in all cases: glycan notation: IUPAC condensed, linker removed
# [1] = molecular target: Gal(b1-3)[Fuc(a1-4)]GlcNAc(b1-3)Gal(b1-4)[Fuc(a1-3)]GlcNAc
# Outline: (§1)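 The binding signal is a Z-score computed within each array and averaged over linkers. Arrays of the same protein sequence at different concentrations or buffers were also averaged together. Data originate from 3228 arrays in the Consortium for Functional Glycomics database, kept only where the protein sequence was available.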
# [2] = molecular target: Gal(b1-3)[GlcNAc(b1-6)]GalNAc
# Outline: as §1
# [3] = molecular target: Gal(b1-3)[Neu5Ac(a2-6)]GalNAc
# Outline: as §1
# [4] = molecular target: Gal(b1-3)[Neu5Ac(a2-6)]GlcNAc(b1-6)Gal(b1-4)Glc
# Outline: as §1
# [5] = molecular target: Gal(b1-3)[Neu5Ac(b2-6)]GalNAc
# Outline: as §1
# [6] = molecular target: Gal(b1-4)GalNAc(a1-3)[Fuc(a1-2)]Gal(b1-4)GlcNAc
# Outline: as §1
# [7] = molecular target: Gal(b1-4)GalNAc(b1-3)[Fuc(a1-2)]Gal(b1-4)GlcNAc
# Outline: as §1
# Gal(b1-4)Glc = molecular target: Gal(b1-4)Glc
# Outline: as §1
# Gal(b1-4)Glc6S = molecular target: Gal(b1-4)Glc6S
# Outline: as §1
# Gal(b1-4)GlcNAc = molecular target: Gal(b1-4)GlcNAc
# Outline: as §1
# [8] = molecular target: Gal(b1-4)GlcNAc(a1-6)Gal(b1-4)GlcNAc
# Outline: as §1
# [9] = molecular target: Gal(b1-4)GlcNAc(b1-2)Man(a1-3)[Gal(b1-4)GlcNAc(b1-2)Man(a1-6)]Man(b1-4)GlcNAc(b1-4)GlcNAc
# Outline: as §1
# [10] = molecular target: Gal(b1-4)GlcNAc(b1-3)Gal(b1-3)GlcNAc
# Outline: as §1
# [11] = molecular target: Gal(b1-4)GlcNAc(b1-3)Gal(b1-4)Glc
# Outline: as §1
# [12] = molecular target: Gal(b1-4)GlcNAc(b1-3)Gal(b1-4)GlcNAc
# Outline: as §1
# [13] = molecular target: Gal(b1-4)GlcNAc(b1-3)Gal(b1-4)GlcNAc(b1-3)Gal(b1-4)GlcNAc
# Outline: as §1
# [14] = molecular target: Gal(b1-4)GlcNAc(b1-3)Gal(b1-4)[Fuc(a1-3)]GlcNAc(b1-3)Gal(b1-4)[Fuc(a1-3)]GlcNAc
# Outline: as §1
# [15] = molecular target: Gal(b1-4)GlcNAc(b1-3)GalNAc
# Outline: as §1
# [16] = molecular target: Gal(b1-4)GlcNAc(b1-3)[Gal(b1-4)GlcNAc(b1-6)]Gal(b1-4)GlcNAc
# Outline: as §1
# [17] = molecular target: Gal(b1-4)GlcNAc(b1-3)[GlcNAc(b1-6)]Gal(b1-4)GlcNAc
# Outline: as §1
# [18] = molecular target: Gal(b1-4)GlcNAc(b1-6)Gal(b1-4)GlcNAc
# Outline: as §1
# [19] = molecular target: Gal(b1-4)GlcNAc(b1-6)Gal(b1-4)GlcNAc(b1-6)GalNAc
# Outline: as §1
# [20] = molecular target: Gal(b1-4)GlcNAc(b1-6)GalNAc
# Outline: as §1
# [21] = molecular target: Gal(b1-4)GlcNAc(b1-6)[Gal(b1-3)]GalNAc
# Outline: as §1
# Gal3S(b1-3)GalNAc = molecular target: Gal3S(b1-3)GalNAc
# Outline: as §1
# Gal3S(b1-3)GlcNAc = molecular target: Gal3S(b1-3)GlcNAc
# Outline: as §1
# [22] = molecular target: Gal3S(b1-3)[Fuc(a1-4)]GlcNAc
# Outline: as §1
# Gal3S(b1-4)Glc = molecular target: Gal3S(b1-4)Glc
# Outline: as §1
# Gal3S(b1-4)Glc6S = molecular target: Gal3S(b1-4)Glc6S
# Outline: as §1
# Gal3S(b1-4)GlcNAc = molecular target: Gal3S(b1-4)GlcNAc
# Outline: as §1
# Gal3S(b1-4)GlcNAc6S = molecular target: Gal3S(b1-4)GlcNAc6S
# Outline: as §1
# [23] = molecular target: Gal3S(b1-4)[Fuc(a1-3)]Glc
# Outline: as §1
# Gal3S4S(b1-4)GlcNAc = molecular target: Gal3S4S(b1-4)GlcNAc
# Outline: as §1
# Gal3S6S(b1-4)GlcNAc = molecular target: Gal3S6S(b1-4)GlcNAc
# Outline: as §1
# Gal3S6S(b1-4)GlcNAc6S = molecular target: Gal3S6S(b1-4)GlcNAc6S
# Outline: as §1
# Gal4S(b1-4)GlcNAc = molecular target: Gal4S(b1-4)GlcNAc
# Outline: as §1
# Gal4S6S(b1-4)GlcNAc = molecular target: Gal4S6S(b1-4)GlcNAc
# Outline: as §1
binder,measurement,setting,value
B1,glycan array binding signal (z-score),[1],0.092
same,glycan array binding signal (z-score),[2],-0.546
same,glycan array binding signal (z-score),[3],-0.549
same,glycan array binding signal (z-score),[4],-0.223
same,glycan array binding signal (z-score),[5],-0.317
same,glycan array binding signal (z-score),[6],0.071
same,glycan array binding signal (z-score),[7],0.341
same,glycan array binding signal (z-score),Gal(b1-4)Glc,-0.161
same,glycan array binding signal (z-score),Gal(b1-4)Glc6S,-0.231
same,glycan array binding signal (z-score),Gal(b1-4)GlcNAc,-0.187
same,glycan array binding signal (z-score),[8],-0.21
same,glycan array binding signal (z-score),[9],-0.438
same,glycan array binding signal (z-score),[10],-0.444
same,glycan array binding signal (z-score),[11],-0.291
same,glycan array binding signal (z-score),[12],0.253
same,glycan array binding signal (z-score),[13],-0.44
same,glycan array binding signal (z-score),[14],-0.453
same,glycan array binding signal (z-score),[15],0.79
same,glycan array binding signal (z-score),[16],0.041
same,glycan array binding signal (z-score),[17],-0.61
same,glycan array binding signal (z-score),[18],-0.494
same,glycan array binding signal (z-score),[19],-0.56
same,glycan array binding signal (z-score),[20],-0.288
same,glycan array binding signal (z-score),[21],-0.407
same,glycan array binding signal (z-score),Gal3S(b1-3)GalNAc,-0.265
same,glycan array binding signal (z-score),Gal3S(b1-3)GlcNAc,0.088
same,glycan array binding signal (z-score),[22],-0.27
same,glycan array binding signal (z-score),Gal3S(b1-4)Glc,-0.02
same,glycan array binding signal (z-score),Gal3S(b1-4)Glc6S,-0.309
same,glycan array binding signal (z-score),Gal3S(b1-4)GlcNAc,-0.144
same,glycan array binding signal (z-score),Gal3S(b1-4)GlcNAc6S,-0.253
same,glycan array binding signal (z-score),[23],-0.006
same,glycan array binding signal (z-score),Gal3S4S(b1-4)GlcNAc,0.435
same,glycan array binding signal (z-score),Gal3S6S(b1-4)GlcNAc,-0.162
same,glycan array binding signal (z-score),Gal3S6S(b1-4)GlcNAc6S,0.66
same,glycan array binding signal (z-score),Gal4S(b1-4)GlcNAc,1.43
same,glycan array binding signal (z-score),Gal4S6S(b1-4)GlcNAc,-0.138
